# From the supplement of paper PMC8728848
# This is one part of the list.
# B1: FBG1 (Homo sapiens), Q9UK22 (protein)
# chain: MDGDGDPESVGQPEEASPEEQPEEASAEEERPEDQQEEEAAAAAAYLDELPEPLLLRVLAALPAAELVQACRLVCLRWKELVDGAPLWLLKCQQEGLVPEGGVEEERDHWQQFYFLSKRRRNLLRNPCGEEDLEGWCDVEHGGDGWRVEELPGDSGVEFTHDESVKKYFASSFEWCRKAQVIDLQAEGYWEELLDTTQPAIVVKDWYSGRSDAGCLYELTVKLLSEHENVLAEFSSGQVAVPQDSDGGGWMEISHTFTDYGPGVRFVRFEHGGQDSVYWKGWFGARVTNSSVWVEP
# Columns and labels:
# Assay in all cases: glycan array binding signal (z-score within array); higher = stronger binding
# Conditions in all cases: glycan notation: IUPAC condensed, linker removed
# [1] = target: GalNAc(b1-3)GalNAc
# How it was run: (§1)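 Glycan array binding is given as a within-array Z-score, which can be read as non-binding when negative. The arrays, 3228 of them, came from the Consortium for Functional Glycomics database and were retained only where the protein sequence was available. Z-scores were averaged across arrays of the same protein sequence at different concentrations or buffers and across linkers.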
# [2] = target: GalNAc(b1-4)GlcNAc
# How it was run: as §1
# [3] = target: Glc(a1-4)Glc
# How it was run: as §1
# [4] = target: Glc(b1-4)Glc
# How it was run: as §1
# [5] = target: Glc(b1-6)Glc
# How it was run: as §1
# [6] = target: GlcNAc(b1-2)Gal(b1-3)GalNAc
# How it was run: as §1
# [7] = target: GlcNAc(b1-3)Gal
# How it was run: as §1
# [8] = target: GlcNAc(b1-3)Gal(b1-3)GalNAc
# How it was run: as §1
# [9] = target: GlcNAc(b1-3)Gal(b1-4)Glc
# How it was run: as §1
# [10] = target: GlcNAc(b1-3)Gal(b1-4)GlcNAc
# How it was run: as §1
# [11] = target: GlcNAc(b1-3)[GlcNAc(b1-6)]GalNAc
# How it was run: as §1
# [12] = target: GlcNAc(b1-3)[GlcNAc(b1-6)]GlcNAc(b1-4)GlcNAc
# How it was run: as §1
# [13] = target: GlcNAc(b1-4)GlcNAc(b1-4)GlcNAc
# How it was run: as §1
# [14] = target: GlcNAc(b1-4)[GlcNAc(b1-6)]GalNAc
# How it was run: as §1
# [15] = target: GlcNAc(b1-6)GalNAc
# How it was run: as §1
# [16] = target: Kdn(a2-3)Gal(b1-3)GlcNAc
# How it was run: as §1
# [17] = target: Kdn(a2-3)Gal(b1-4)GlcNAc
# How it was run: as §1
# [18] = target: Man(a1-2)Man(a1-2)Man(a1-3)Man
# How it was run: as §1
# [19] = target: Man(a1-2)Man(a1-2)Man(a1-6)[Man(a1-3)]Man
# How it was run: as §1
# [20] = target: Man(a1-2)Man(a1-3)Man
# How it was run: as §1
# [21] = target: Man(a1-2)Man(a1-3)[Man(a1-2)Man(a1-6)]Man
# How it was run: as §1
# [22] = target: Man(a1-2)Man(a1-3)[Man(a1-2)Man(a1-6)]Man(a1-6)[Man(a1-2)Man(a1-2)Man(a1-3)]Man(b1-4)GlcNAc(b1-4)GlcNAc
# How it was run: as §1
# [23] = target: Man(a1-2)Man(a1-3)[Man(a1-2)Man(a1-6)]Man(a1-6)[Man(a1-3)[Man(a1-6)]Man(a1-6)]Man(b1-4)GlcNAc(b1-4)GlcNAc
# How it was run: as §1
# [24] = target: Man(a1-2)Man(a1-3)[Man(a1-6)]Man(a1-6)[Man(a1-2)Man(a1-3)]Man(b1-4)GlcNAc(b1-4)GlcNAc
# How it was run: as §1
# [25] = target: Man(a1-2)Man(a1-6)[Man(a1-3)]Man(a1-6)[Man(a1-2)Man(a1-2)Man(a1-3)]Man(b1-4)GlcNAc(b1-4)GlcNAc
# How it was run: as §1
# [26] = target: Man(a1-3)[Man(a1-6)]Man
# How it was run: as §1
# [27] = target: Man(a1-3)[Man(a1-6)]Man(a1-6)[Man(a1-3)]Man(b1-4)GlcNAc(b1-4)GlcNAc
# How it was run: as §1
# [28] = target: Neu5Ac(a2-3)Gal
# How it was run: as §1
# [29] = target: Neu5Ac(a2-3)Gal(b1-3)GalNAc
# How it was run: as §1
# [30] = target: Neu5Ac(a2-3)Gal(b1-3)GalNAc6S
# How it was run: as §1
# [31] = target: Neu5Ac(a2-3)Gal(b1-3)GlcNAc
# How it was run: as §1
# [32] = target: Neu5Ac(a2-3)Gal(b1-3)[Fuc(a1-4)]GlcNAc
# How it was run: as §1
# [33] = target: Neu5Ac(a2-3)Gal(b1-3)[Neu5Ac(a2-3)Gal(b1-4)]GlcNAc
# How it was run: as §1
# [34] = target: Neu5Ac(a2-3)Gal(b1-3)[Neu5Ac(a2-6)]GalNAc
# How it was run: as §1
# [35] = target: Neu5Ac(a2-3)Gal(b1-4)Glc
# How it was run: as §1
# [36] = target: Neu5Ac(a2-3)Gal(b1-4)GlcNAc
# How it was run: as §1
# [37] = target: Neu5Ac(a2-3)Gal(b1-4)GlcNAc(b1-3)Gal(b1-4)GlcNAc
# How it was run: as §1
# [38] = target: Neu5Ac(a2-3)Gal(b1-4)GlcNAc(b1-3)Gal(b1-4)GlcNAc(b1-3)Gal(b1-4)GlcNAc
# How it was run: as §1
# [39] = target: Neu5Ac(a2-3)Gal(b1-4)GlcNAc6S
# How it was run: as §1
# [40] = target: Neu5Ac(a2-3)Gal(b1-4)[Fuc(a1-3)]GlcNAc
# How it was run: as §1
# [41] = target: Neu5Ac(a2-3)Gal(b1-4)[Fuc(a1-3)]GlcNAc(b1-3)Gal
# How it was run: as §1
# [42] = target: Neu5Ac(a2-3)Gal(b1-4)[Fuc(a1-3)]GlcNAc(b1-3)Gal(b1-4)GlcNAc
# How it was run: as §1
# [43] = target: Neu5Ac(a2-3)Gal(b1-4)[Fuc(a1-3)]GlcNAc(b1-3)Gal(b1-4)[Fuc(a1-3)]GlcNAc(b1-3)Gal(b1-4)[Fuc(a1-3)]GlcNAc
# How it was run: as §1
# [44] = target: Neu5Ac(a2-3)Gal(b1-4)[Fuc(a1-3)]GlcNAc6S
# How it was run: as §1
# [45] = target: Neu5Ac(a2-3)Gal6S(b1-4)GlcNAc
# How it was run: as §1
# [46] = target: Neu5Ac(a2-3)GalNAc
# How it was run: as §1
# [47] = target: Neu5Ac(a2-3)[GalNAc(b1-4)]Gal(b1-4)Glc
# How it was run: as §1
# [48] = target: Neu5Ac(a2-3)[GalNAc(b1-4)]Gal(b1-4)GlcNAc
# How it was run: as §1
# [49] = target: Neu5Ac(a2-3)[Neu5Ac(a2-6)]GalNAc
# How it was run: as §1
# [50] = target: Neu5Ac(a2-6)Gal
# How it was run: as §1
# [51] = target: Neu5Ac(a2-6)Gal(b1-4)Glc
# How it was run: as §1
# [52] = target: Neu5Ac(a2-6)Gal(b1-4)GlcNAc
# How it was run: as §1
# [53] = target: Neu5Ac(a2-6)Gal(b1-4)GlcNAc(b1-3)Gal(b1-4)GlcNAc
# How it was run: as §1
# [54] = target: Neu5Ac(a2-6)Gal(b1-4)GlcNAc(b1-3)Gal(b1-4)[Fuc(a1-3)]GlcNAc(b1-3)Gal(b1-4)[Fuc(a1-3)]GlcNAc
# How it was run: as §1
# [55] = target: Neu5Ac(a2-6)Gal(b1-4)GlcNAc6S
# How it was run: as §1
# [56] = target: Neu5Ac(a2-6)GalNAc
# How it was run: as §1
# [57] = target: Neu5Ac(a2-8)Neu5Ac
# How it was run: as §1
# [58] = target: Neu5Ac(a2-8)Neu5Ac(a2-3)Gal(b1-4)Glc
# How it was run: as §1
# [59] = target: Neu5Ac(a2-8)Neu5Ac(a2-3)[GalNAc(b1-4)]Gal(b1-4)Glc
# How it was run: as §1
# [60] = target: Neu5Ac(a2-8)Neu5Ac(a2-8)Neu5Ac
# How it was run: as §1
# [61] = target: Neu5Ac(a2-8)Neu5Ac(a2-8)Neu5Ac(a2-3)Gal(b1-4)Glc
# How it was run: as §1
# [62] = target: Neu5Ac(a2-8)Neu5Ac(a2-8)Neu5Ac(a2-3)[GalNAc(b1-4)]Gal(b1-4)Glc
# How it was run: as §1
# [63] = target: Neu5Ac(b1-6)GalNAc
# How it was run: as §1
# [64] = target: Neu5Ac(b2-6)Gal(b1-4)GlcNAc
# How it was run: as §1
# [65] = target: Neu5Ac9Ac(a2-6)Gal(b1-4)GlcNAc
# How it was run: as §1
# [66] = target: Neu5Gc(a2-3)Gal(b1-3)GlcNAc
# How it was run: as §1
# [67] = target: Neu5Gc(a2-3)Gal(b1-3)[Fuc(a1-4)]GlcNAc
# How it was run: as §1
# [68] = target: Neu5Gc(a2-3)Gal(b1-4)Glc
# How it was run: as §1
# [69] = target: Neu5Gc(a2-3)Gal(b1-4)GlcNAc
# How it was run: as §1
# [70] = target: Neu5Gc(a2-3)Gal(b1-4)[Fuc(a1-3)]GlcNAc
# How it was run: as §1
# [71] = target: Neu5Gc(a2-6)Gal(b1-4)GlcNAc
# How it was run: as §1
# [72] = target: Neu5Gc(a2-6)GalNAc
# How it was run: as §1
binder,measurement,setting,value
B1,glycan array binding signal (z-score),[1],-0.242
same,glycan array binding signal (z-score),[2],-0.097
same,glycan array binding signal (z-score),[3],-0.213
same,glycan array binding signal (z-score),[4],-0.168
same,glycan array binding signal (z-score),[5],-0.233
same,glycan array binding signal (z-score),[6],-0.226
same,glycan array binding signal (z-score),[7],-0.219
same,glycan array binding signal (z-score),[8],-0.202
same,glycan array binding signal (z-score),[9],-0.176
same,glycan array binding signal (z-score),[10],-0.196
same,glycan array binding signal (z-score),[11],-0.242
same,glycan array binding signal (z-score),[12],-0.188
same,glycan array binding signal (z-score),[13],-0.107
same,glycan array binding signal (z-score),[14],-0.206
same,glycan array binding signal (z-score),[15],-0.232
same,glycan array binding signal (z-score),[16],-0.237
same,glycan array binding signal (z-score),[17],-0.173
same,glycan array binding signal (z-score),[18],-0.214
same,glycan array binding signal (z-score),[19],-0.202
same,glycan array binding signal (z-score),[20],-0.2
same,glycan array binding signal (z-score),[21],-0.1
same,glycan array binding signal (z-score),[22],3.64
same,glycan array binding signal (z-score),[23],4.33
same,glycan array binding signal (z-score),[24],2.86
same,glycan array binding signal (z-score),[25],4.93
same,glycan array binding signal (z-score),[26],-0.213
same,glycan array binding signal (z-score),[27],4.2
same,glycan array binding signal (z-score),[28],-0.204
same,glycan array binding signal (z-score),[29],-0.198
same,glycan array binding signal (z-score),[30],-0.22
same,glycan array binding signal (z-score),[31],-0.214
same,glycan array binding signal (z-score),[32],-0.23
same,glycan array binding signal (z-score),[33],-0.221
same,glycan array binding signal (z-score),[34],-0.247
same,glycan array binding signal (z-score),[35],-0.031
same,glycan array binding signal (z-score),[36],-0.198
same,glycan array binding signal (z-score),[37],-0.231
same,glycan array binding signal (z-score),[38],-0.141
same,glycan array binding signal (z-score),[39],-0.229
same,glycan array binding signal (z-score),[40],-0.229
same,glycan array binding signal (z-score),[41],-0.239
same,glycan array binding signal (z-score),[42],-0.195
same,glycan array binding signal (z-score),[43],-0.231
same,glycan array binding signal (z-score),[44],-0.226
same,glycan array binding signal (z-score),[45],-0.226
same,glycan array binding signal (z-score),[46],0.111
same,glycan array binding signal (z-score),[47],-0.218
same,glycan array binding signal (z-score),[48],-0.217
same,glycan array binding signal (z-score),[49],-0.197
same,glycan array binding signal (z-score),[50],-0.199
same,glycan array binding signal (z-score),[51],-0.208
same,glycan array binding signal (z-score),[52],-0.233
same,glycan array binding signal (z-score),[53],-0.161
same,glycan array binding signal (z-score),[54],-0.206
same,glycan array binding signal (z-score),[55],-0.197
same,glycan array binding signal (z-score),[56],0.442
same,glycan array binding signal (z-score),[57],-0.158
same,glycan array binding signal (z-score),[58],-0.238
same,glycan array binding signal (z-score),[59],-0.22
same,glycan array binding signal (z-score),[60],-0.248
same,glycan array binding signal (z-score),[61],-0.232
same,glycan array binding signal (z-score),[62],-0.239
same,glycan array binding signal (z-score),[63],-0.218
same,glycan array binding signal (z-score),[64],-0.263
same,glycan array binding signal (z-score),[65],0.325
same,glycan array binding signal (z-score),[66],-0.177
same,glycan array binding signal (z-score),[67],-0.265
same,glycan array binding signal (z-score),[68],0.109
same,glycan array binding signal (z-score),[69],-0.201
same,glycan array binding signal (z-score),[70],-0.216
same,glycan array binding signal (z-score),[71],0.244
same,glycan array binding signal (z-score),[72],-0.24
